Laboratory results as given in PubChem BioAssay (Tox21).
The shares of active, inactive and inconclusive entries below differ from those in the screen. For part of these data: Potencies beside an inconclusive call are fits to weak or partial responses and may not hold up. The source made the active and inactive calls. Unless noted, calls come from the whole dose curve.

Key:
[1] = qHTS assay to identify small molecule agonists of the sonic hedgehog signaling (Shh) pathway (AID 1259368); note: nearly all actives have a fitted effect of over 15% in size; note: potency is the fitted concentration of half-maximal effect;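 for activity change: NIH/3T3-derived 3T3Gli1-Luc cells carrying a stable Gli1-driven firefly luciferase reporter; % is set by controls: 0 for no effect and ±100 for the full control effect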
Summary of the method: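 Luminescence was read after 30 min at room temperature with luciferase reagent. Before that, 3T3Gli1-Luc cells (NIH/3T3 clone, stable Gli1-Luc reporter; 2,000/well) were exposed to compounds for 24 hr at 37C, 5% CO2, compounds being added 4 hr post-plating.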

[2] = molecular target: Estrogen receptor beta (Homo sapiens) (UniProt Q92731); assay: qHTS assay to identify small molecule agonists of the estrogen receptor beta (ER-beta) signaling pathway (AID 1259377; active = well fitted activation curve with a large enough effect in the signal ratio in the repeat runs, not every such curve was filed as active; inconclusive = weak or mixed curves, or effect the other way; the % refers to the signal ratio; note: potency is the fitted concentration of half-maximal effect; for activation: % is set by controls: 0 for no effect and ±100 for the full control effect); conditions: ER-beta-UAS-bla HEK293T, beta-lactamase FRET ratio, 16 h; activation: at 92.4 µM (top of the series) unless noted
Summary of the method: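 In HEK293T cells bearing a UAS-beta-lactamase reporter under ER-beta control, DMSO-delivered compounds were incubated for 16 hr at 37C. Activity was detected as fluorescence 2 hours after LiveBLAzer B/G FRET substrate addition.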

[3] = qHTS assay to identify small molecule agonists or antagonists of the thyroid stimulating hormone receptor (TSHR) signaling pathway - wild type cell line counter screen (AID 1259384); conditions: HEK293 wild type, cAMP HTRF counter-screen; cAMP activity change: at 92.4 µM (top of the series), hits give high values unless noted; note: % is set by controls: 0 for no effect and ±100 for the full control effect
Summary of the method: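 Wild-type HEK293 cells were plated 18 h at 37 C/5% CO2, pin-dosed with compound plus Ro20-1724 medium, held 30 min at room temperature, then given cAMP-d2 and anti-cAMP-cryptate; fluorescence was read after 1 h. Fifteen concentrations, triplicate.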

[4] = qHTS assay to identify small molecule agonists of the estrogen receptor alpha (ER-alpha) signaling pathway in the presence of an antagonist - cell viability counter screen (AID 1259386; active = well fitted curve in the direction sought with a large enough effect in the repeat runs; inconclusive = weak or mixed curves; inactive = no such curve, though single readings can be large; an effect the other way counts as inactive or inconclusive; note: % is set by controls: 0 for no effect and ±100 for the full control effect; nearly all actives have a fitted effect of over 30% in size)
Summary of the method: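 Compounds tested at 15 concentrations for 22 h at 37C alongside 10.0nM (final) ICI-182,780 antagonist, in VM7Luc4E2 cells grown in phenol red-free, charcoal-stripped medium. Viability read by CellTiter-Fluor fluorescence after 1 h reagent incubation.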

[5] = qHTS assay to identify small molecule antagonists of the sonic hedgehog signaling (Shh) pathway (AID 1259369); note: nearly all actives have a fitted effect of over 45% in size; note: potency is the fitted concentration of half-maximal effect
Summary of the method: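 Antagonist mode: compound added to 3T3 Gli1-Luc cells followed by conditioned-medium stimulation, 24 h at 37 C, 5% CO2. Inhibition taken as loss of Gli1-driven luciferase luminescence.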

[6] = molecular target: Estrogen receptor beta (Homo sapiens) (UniProt Q92731); assay: qHTS assay to identify small molecule antagonists of the estrogen receptor beta (ER-beta) signaling pathway (AID 1259378; active = well fitted inhibition curve with a large enough effect in the signal ratio in the repeat runs, not every such curve was filed as active; inconclusive = weak or mixed curves, or effect the other way; inactive = no such curve, though single readings can be large or run the other way; the % refers to the signal ratio; note: potency is the fitted concentration of half-maximal effect); conditions: ER-beta-UAS-bla HEK293T, beta-lactamase FRET ratio, 16 h; activity, negative = inhibition: at 92.4 µM (top of the series) unless noted
Summary of the method: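 ER-beta-UAS-bla HEK293T (GripTite) cells in 2% charcoal-stripped FBS medium were preincubated 6 hr at 37C, dosed with compound, then stimulated with 1 nM E2 (final) for 16 hr; beta-lactamase reporter read by B/G FRET fluorescence after 2 hr substrate loading.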

[7] = qHTS assay to identify small molecule agonists of the androgen receptor (AR) signaling pathway in the presence of an antagonist - cell viability counter screen (AID 1259379; active = well fitted curve in the direction sought with a large enough effect in the repeat runs; inconclusive = weak or mixed curves; inactive = no such curve, though single readings can be large; an effect the other way counts as inactive or inconclusive; note: potency is the fitted concentration of half-maximal effect; nearly all actives have a fitted effect of over 25% in size)
Summary of the method: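 Cytotoxicity counter-screen run in the same wells as the nilutamide-challenged (3.0 µM final) AR agonist assay in MDA-kb2 cells. Compounds tested at 15 concentrations for 16 h, 37 °C without CO2; CellTiter-Fluor fluorescence read.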

[8] = molecular target: Androgen receptor (Homo sapiens) (UniProt P10275); assay: qHTS assay to identify small molecule agonists of the androgen receptor (AR) signaling pathway in the presence of an antagonist (AID 1259381); note: potency is the fitted concentration of half-maximal effect; nearly all actives have a fitted effect of over 15% in size
Summary of the method: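 Agonist-mode confirmation run against 3.0 uM final nilutamide: compounds titrated at 15 concentrations onto MDA-kb2 MMTV-luciferase reporter cells. Luminescence measured with ONE-Glo following 16 hr incubation, 37C, 0% CO2.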

[9] = molecular target: Progesterone receptor (Homo sapiens) (UniProt P06401); assay: qHTS assay to identify small molecule antagonists of the progesterone receptor (PR) signaling pathway (AID 1346795; active = well fitted inhibition curve with a large enough effect in the signal ratio in the repeat runs, not every such curve was filed as active; inconclusive = weak or mixed curves; the % refers to the signal ratio; note: potency is the fitted concentration of half-maximal effect); conditions: PR-UAS-bla HEK293T, beta-lactamase FRET ratio, 16 h; activity change, negative = inhibition: at 92.4 µM (top of the series) unless noted
Summary of the method: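 Inhibition of R5020-induced (1 nM final) beta-lactamase reporter signal in PR-UAS-bla HEK293T cells was scored by FRET fluorescence after overnight (16 hr) compound treatment.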

[10] = qHTS assay to identify small molecule agonists of the progesterone receptor (PR) signaling pathway - cell viability counter screen (AID 1346799); note: nearly all actives have a fitted effect of over 45% in size; note: potency is the fitted concentration of half-maximal effect
Summary of the method: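 Cytotoxicity in PR-bla HEK293T cells: 16 h compound, 37C; CellTiter-Glo added post-FRET read; luminescence after 30 min RT.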

[11] = qHTS assay to identify small molecule antagonists of the estrogen receptor beta (ER-beta) signaling pathway - cell viability counter screen (AID 1259382; active = well fitted curve in the direction sought with a large enough effect in the repeat runs; inconclusive = weak or mixed curves; inactive = no such curve, though single readings can be large; an effect the other way counts as inactive or inconclusive; note: nearly all actives have a fitted effect of over 55% in size; note: potency is the fitted concentration of half-maximal effect)
Summary of the method: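 Cytotoxicity was measured in the same wells by CellTiter-Glo luminescence after 30 min at room temperature. Cells were ER-beta-bla HEK293T in charcoal-stripped serum, given compound together with 1 nM E2 and incubated 16 h at 37C.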

[12] = molecular target: Progesterone receptor (Homo sapiens) (UniProt P06401); assay: qHTS assay to identify small molecule agonists of the progesterone receptor (PR) signaling pathway (AID 1346784); conditions: PR-UAS-bla HEK293T, beta-lactamase FRET ratio, 16 h; activation: at 92.4 µM (top of the series) unless noted; note: % is set by controls: 0 for no effect and ±100 for the full control effect; nearly all actives have a fitted effect of over 30% in size
Summary of the method: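 Using charcoal-stripped serum (2%) to limit endogenous steroids, PR-UAS-bla HEK 293T cells received compounds for 16 hr at 37C after 6 hr plating; beta-lactamase FRET fluorescence was recorded following 2 hr substrate loading at room temperature.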

[13] = qHTS assay to identify small molecule antagonists of the progesterone receptor (PR) signaling pathway - cell viability counter screen (AID 1346798; active = well fitted curve in the direction sought with a large enough effect in the repeat runs; inconclusive = weak or mixed curves; inactive = no such curve, though single readings can be large; an effect the other way counts as inactive or inconclusive; note: nearly all actives have a fitted effect of over 50% in size; note: potency is the fitted concentration of half-maximal effect)
Summary of the method: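 ATP content as viability readout: CellTiter-Glo luminescence, 30 min room temperature, in PR-UAS-bla HEK293T cells after 16 hr compound/R5020 treatment at 37C and 5% CO2.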

[14] = qHTS assay to identify small molecule agonists of the estrogen receptor beta (ER-beta) signaling pathway - cell viability counter screen (AID 1259380; active = well fitted curve in the direction sought with a large enough effect in the repeat runs; inconclusive = weak or mixed curves; inactive = no such curve, though single readings can be large; an effect the other way counts as inactive or inconclusive; note: potency is the fitted concentration of half-maximal effect; nearly all actives have a fitted effect of over 30% in size)
Summary of the method: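 Cell viability counter screen: CellTiter-Glo luminescence (30 min, room temperature) measured in the same wells as the beta-lactamase readout, after 16 hr compound exposure at 37C of ER-beta-bla HEK293T cells in 2% charcoal-stripped FBS medium.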

[15] = molecular target: Thyrotropin-releasing hormone receptor (Homo sapiens) (UniProt P34981); assay: qHTS assay to identify small molecule antagonists of the thyrotropin-releasing hormone receptor (TRHR) signaling pathway (AID 1346877; active = well fitted inhibition curve with a large enough effect in the repeat runs, not every such curve was filed as active; inconclusive = weak or mixed curves; note: % is set by controls: 0 for no effect and ±100 for the full control effect)
Summary of the method: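 Antagonist mode: after a 5 min room-temperature compound exposure, cells were stimulated with 1 nM (final) TRH. Dye-loaded TRHR-HEK293 cells were used, and calcium-dependent fluorescence was followed for 3 min, with 15-point titrations run in triplicate.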

[16] = molecular target: Thyrotropin receptor (Homo sapiens) (UniProt P16473); assay: qHTS assay to identify small molecule antagonists of the thyroid stimulating hormone receptor (TSHR) signaling pathway (AID 1259385); conditions: TSHR-HEK293 cAMP HTRF, TSH-stimulated antagonist mode; activity change, negative = inhibition: at 92.4 µM (top of the series) unless noted; note: potency is the fitted concentration of half-maximal effect; nearly all actives have a fitted effect of over 20% in size
Summary of the method: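 TSHR-HEK293 cells were plated and held 18 h at 37C/5% CO2, then given compound plus Ro20-1724 and stimulated with TSH at 1.5 ng/mL final. After 30 min at room temperature, cAMP was detected with cAMP-d2/anti-cAMP-cryptate (1 h) by fluorescence.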

[17] = qHTS assay to identify small molecule antagonists of the TGF-beta/Smad signaling pathway - cell viability counter screen (AID 1346824; active = well fitted curve in the direction sought with a large enough effect in the repeat runs; inconclusive = weak or mixed curves; inactive = no such curve, though single readings can be large; an effect the other way counts as inactive or inconclusive; note: potency is the fitted concentration of half-maximal effect; nearly all actives have a fitted effect of over 50% in size)
Summary of the method: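 SBE-bla HEK 293T cells were plated overnight at 37 C, then given compounds in DMSO plus TGF-beta1 (added as 0.25 ng/mL solution) for 5 hr. After the bla read, CellTiter-Glo was added to the same wells and luminescence read after 30 min at room temperature.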

[18] = qHTS assay to identify small molecule agonists of the TGF-beta/Smad signaling pathway - cell viability counter screen (AID 1346829; active = well fitted curve in the direction sought with a large enough effect in the repeat runs; inconclusive = weak or mixed curves; inactive = no such curve, though single readings can be large; an effect the other way counts as inactive or inconclusive; note: nearly all actives have a fitted effect of over 45% in size; note: potency is the fitted concentration of half-maximal effect)
Summary of the method: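 Here the cytotoxicity of library compounds is measured in SBE-bla HEK 293T cells treated for 5 hr, using CellTiter-Glo added to wells already read for the beta-lactamase reporter.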

[19] = qHTS assay to identify small molecule agonists of the TGF-beta/Smad signaling pathway (AID 1346859; active = well fitted activation curve with a large enough effect in the signal ratio in the repeat runs, not every such curve was filed as active; inconclusive = weak or mixed curves; the % refers to the signal ratio; note: potency is the fitted concentration of half-maximal effect); conditions: SBE-bla HEK293T, TGF-beta/Smad beta-lactamase reporter, 5 h; activation: at 76.8 µM (top of the series)
Summary of the method: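 Stable Smad binding element-beta-lactamase HEK 293T cells; 5 hr compound exposure at 37 C under 5% CO2; 2 hr room-temperature substrate step; fluorescence excited at 405 nm, collected at 460 nm and 530 nm.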
Tags give direction and shape of the fitted curve or compound fluorescence and quenching.

Chain of UniProt P06401 (P06401 whole entry, looked up): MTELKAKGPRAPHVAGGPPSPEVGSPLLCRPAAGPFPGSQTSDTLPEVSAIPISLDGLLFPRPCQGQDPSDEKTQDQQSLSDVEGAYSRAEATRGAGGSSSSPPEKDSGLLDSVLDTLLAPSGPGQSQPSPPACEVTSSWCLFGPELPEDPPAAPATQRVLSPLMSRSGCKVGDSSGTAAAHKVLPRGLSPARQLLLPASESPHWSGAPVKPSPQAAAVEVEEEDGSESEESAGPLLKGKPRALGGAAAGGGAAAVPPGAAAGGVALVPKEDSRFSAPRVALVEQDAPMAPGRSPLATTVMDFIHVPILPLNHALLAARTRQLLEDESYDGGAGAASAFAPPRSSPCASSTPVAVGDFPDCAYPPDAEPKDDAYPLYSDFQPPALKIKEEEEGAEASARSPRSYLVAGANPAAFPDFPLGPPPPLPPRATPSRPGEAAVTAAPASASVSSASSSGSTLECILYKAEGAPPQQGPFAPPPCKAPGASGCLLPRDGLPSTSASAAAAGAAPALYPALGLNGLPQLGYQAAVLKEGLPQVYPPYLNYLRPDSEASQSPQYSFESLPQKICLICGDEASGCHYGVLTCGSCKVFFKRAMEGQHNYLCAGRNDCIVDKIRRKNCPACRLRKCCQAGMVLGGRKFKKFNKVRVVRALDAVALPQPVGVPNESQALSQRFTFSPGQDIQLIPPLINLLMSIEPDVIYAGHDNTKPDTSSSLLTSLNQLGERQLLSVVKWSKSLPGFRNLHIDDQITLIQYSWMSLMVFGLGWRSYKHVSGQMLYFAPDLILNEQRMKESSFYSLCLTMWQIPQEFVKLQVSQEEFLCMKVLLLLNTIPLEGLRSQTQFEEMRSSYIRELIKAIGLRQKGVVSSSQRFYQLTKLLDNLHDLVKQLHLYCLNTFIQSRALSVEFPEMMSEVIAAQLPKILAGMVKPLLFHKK
Chain of UniProt P16473 (P16473 whole entry, looked up): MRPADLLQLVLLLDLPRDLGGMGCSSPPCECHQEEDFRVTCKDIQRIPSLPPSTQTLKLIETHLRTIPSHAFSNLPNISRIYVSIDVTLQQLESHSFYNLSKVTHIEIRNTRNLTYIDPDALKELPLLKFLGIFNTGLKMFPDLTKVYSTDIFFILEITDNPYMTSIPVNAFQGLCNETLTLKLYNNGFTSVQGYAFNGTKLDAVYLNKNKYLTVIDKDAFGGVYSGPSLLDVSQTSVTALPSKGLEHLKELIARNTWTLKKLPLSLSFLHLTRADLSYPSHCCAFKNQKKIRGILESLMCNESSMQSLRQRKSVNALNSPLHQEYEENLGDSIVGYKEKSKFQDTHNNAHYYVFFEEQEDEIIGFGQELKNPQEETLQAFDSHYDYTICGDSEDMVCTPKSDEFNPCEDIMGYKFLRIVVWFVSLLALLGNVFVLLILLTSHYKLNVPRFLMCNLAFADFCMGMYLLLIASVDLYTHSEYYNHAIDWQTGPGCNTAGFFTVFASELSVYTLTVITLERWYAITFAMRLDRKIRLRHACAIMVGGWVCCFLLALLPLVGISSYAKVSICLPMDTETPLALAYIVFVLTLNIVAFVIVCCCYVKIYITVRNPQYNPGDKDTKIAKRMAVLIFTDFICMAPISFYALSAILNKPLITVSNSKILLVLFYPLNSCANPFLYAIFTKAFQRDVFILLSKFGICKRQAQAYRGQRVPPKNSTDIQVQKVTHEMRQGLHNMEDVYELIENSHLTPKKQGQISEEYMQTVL
Chain of UniProt Q92731 (Q92731 whole entry, looked up): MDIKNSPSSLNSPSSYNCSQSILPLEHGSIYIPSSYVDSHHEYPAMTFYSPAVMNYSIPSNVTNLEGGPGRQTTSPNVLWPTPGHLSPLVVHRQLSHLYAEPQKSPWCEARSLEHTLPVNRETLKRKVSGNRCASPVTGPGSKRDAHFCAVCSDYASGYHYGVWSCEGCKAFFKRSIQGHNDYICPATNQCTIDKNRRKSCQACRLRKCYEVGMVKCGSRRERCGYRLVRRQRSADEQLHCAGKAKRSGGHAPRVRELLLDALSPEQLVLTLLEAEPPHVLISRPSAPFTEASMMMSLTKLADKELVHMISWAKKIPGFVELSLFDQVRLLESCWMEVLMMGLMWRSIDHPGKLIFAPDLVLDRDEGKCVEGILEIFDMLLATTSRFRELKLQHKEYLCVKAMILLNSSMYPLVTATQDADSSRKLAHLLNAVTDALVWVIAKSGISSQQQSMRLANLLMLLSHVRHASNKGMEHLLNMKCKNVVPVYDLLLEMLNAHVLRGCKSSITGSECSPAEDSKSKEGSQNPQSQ
Chain of UniProt P10275 (P10275 whole entry, looked up): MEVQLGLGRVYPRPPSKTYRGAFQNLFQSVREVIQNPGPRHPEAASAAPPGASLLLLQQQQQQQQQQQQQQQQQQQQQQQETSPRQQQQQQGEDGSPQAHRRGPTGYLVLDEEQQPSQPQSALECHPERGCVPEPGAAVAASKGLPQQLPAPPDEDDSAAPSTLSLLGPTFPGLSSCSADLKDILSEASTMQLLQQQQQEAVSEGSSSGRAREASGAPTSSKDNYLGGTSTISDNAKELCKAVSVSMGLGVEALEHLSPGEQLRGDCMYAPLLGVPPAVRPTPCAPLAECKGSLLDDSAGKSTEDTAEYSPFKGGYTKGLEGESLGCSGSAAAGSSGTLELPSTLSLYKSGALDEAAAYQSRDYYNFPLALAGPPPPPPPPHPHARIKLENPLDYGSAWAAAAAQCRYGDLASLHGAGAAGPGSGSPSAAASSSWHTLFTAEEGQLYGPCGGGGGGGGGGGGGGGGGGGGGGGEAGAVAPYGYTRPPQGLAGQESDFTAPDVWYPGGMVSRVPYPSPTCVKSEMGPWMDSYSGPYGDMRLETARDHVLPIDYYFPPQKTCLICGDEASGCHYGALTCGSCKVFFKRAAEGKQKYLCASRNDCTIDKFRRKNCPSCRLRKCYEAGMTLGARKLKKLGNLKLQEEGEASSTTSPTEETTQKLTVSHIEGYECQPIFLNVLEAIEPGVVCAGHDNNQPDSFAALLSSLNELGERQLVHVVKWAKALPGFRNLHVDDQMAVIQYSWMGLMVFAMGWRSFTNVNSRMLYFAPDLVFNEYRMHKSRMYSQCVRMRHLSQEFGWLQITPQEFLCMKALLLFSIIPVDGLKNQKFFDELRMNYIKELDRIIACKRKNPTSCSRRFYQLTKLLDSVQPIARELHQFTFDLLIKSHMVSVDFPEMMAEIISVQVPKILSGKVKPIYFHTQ
Chain of UniProt P34981 (P34981 whole entry, looked up): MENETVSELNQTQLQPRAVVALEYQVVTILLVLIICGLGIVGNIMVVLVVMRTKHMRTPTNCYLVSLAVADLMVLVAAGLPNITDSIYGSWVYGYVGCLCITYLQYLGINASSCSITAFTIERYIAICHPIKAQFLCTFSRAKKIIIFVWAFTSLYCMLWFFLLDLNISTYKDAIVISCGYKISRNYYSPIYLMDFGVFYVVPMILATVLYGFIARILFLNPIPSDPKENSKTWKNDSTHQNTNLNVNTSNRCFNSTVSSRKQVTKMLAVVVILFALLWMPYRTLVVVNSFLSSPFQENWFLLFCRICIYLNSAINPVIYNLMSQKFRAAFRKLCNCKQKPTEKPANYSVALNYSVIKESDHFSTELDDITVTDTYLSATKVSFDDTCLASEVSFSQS

N#C[C@@H]1CC(F)(F)CN1C(=O)CNC1CC2CCC(C1)N2c1ncccn1 (some centres not stated)
Potency [1]: inactive
Potency [2]: inactive
cAMP activity change [3]: inconclusive: 1.85%
Potency [4]: inactive

Cc1ccc(=O)n(-c2ccccc2)c1
Potency [1]: inactive
Potency [5]: inconclusive: 1.19 µM [inhibitor, single point]
Potency [4]: inactive

CC(=O)Nc1ccc(N=Nc2cc(C)ccc2O)cc1
Potency [1]: inconclusive: 17.2 µM [activator, partial curve]
Potency [5]: active: 15.4 µM
activity, negative = inhibition [6]: inconclusive: -27%
Potency [7]: inconclusive: 43.3 µM [cytotoxic, partial curve]
Potency [8]: inconclusive: 7.7 µM [rising, partial curve]
Potency [9]: active: 48.6 µM
Potency [10]: inconclusive: 68.6 µM [rising, single point]

CCCCNC(=S)NCCCC
Potency [1]: inconclusive: 68.6 µM [activator, single point]
Potency [6]: inconclusive: 48.6 µM [rising, partial curve]
Potency [11]: inconclusive: 48.6 µM [cytotoxic, partial curve]
activation [12]: inconclusive: -12.1%
Potency [9]: inconclusive: 8.63 µM [rising, full curve, poor fit]
Potency [13]: active: 9.69 µM
Potency [10]: inactive

COC(=O)c1cccnc1
Potency [5]: inactive

C=C[Si](C)(C)Cl
Potency [5]: inconclusive: 2.37 µM [inhibitor, partial curve, poor fit]

CC(=O)C(C)C
Potency [5]: inactive

SCCOCCOCCS
Potency [1]: inconclusive: 77 µM [activator, single point]
Potency [14]: inconclusive: 17.2 µM [cytotoxic, full curve]
Potency [13]: inactive
Potency [10]: inactive

Cc1ccc(C)c([N+](=O)[O-])c1
Potency [1]: inactive

Cc1cccc(NC(=S)N(C)C)c1
Potency [1]: inconclusive: 61.1 µM [activator, single point]
Potency [6]: inconclusive: 34.4 µM [rising, partial curve]
Potency [11]: inconclusive: 43.3 µM [cytotoxic, partial curve, poor fit]
activation [12]: inconclusive: -25.7%
Potency [9]: inconclusive: 30.6 µM
Potency [13]: active: 30.6 µM
Potency [15]: inactive

CCCCOC(=O)CC#N
Potency [5]: active: 32.1 µM

O=C(NN1CCCC1)NS(=O)(=O)c1ccc(Cl)cc1
Potency [5]: inactive

CCCCNc1ccc(C(=O)OCCN(CC)CC)cc1
Potency [5]: inconclusive: 18.8 µM [inhibitor, partial curve]

O=[N+]([O-])c1cc[n+]([O-])cc1
Potency [1]: inactive
Potency [2]: inconclusive: 68.6 µM [rising, single point]
Potency [6]: active: 43.3 µM
Potency [11]: inconclusive: 48.6 µM [cytotoxic, partial curve]
Potency [16]: inconclusive: 77 µM
Potency [10]: inconclusive: 68.6 µM [rising, partial curve, poor fit]
Potency [17]: inconclusive: 61.6 µM [cytotoxic, single point]

CN(C)CCOCCN(C)C
Potency [5]: inconclusive: 6.86 µM [inhibitor, single point]

CN1CCC(=C2c3ccccc3CC(=O)c3sccc32)CC1
Potency [5]: inactive

CCCOc1ccc(S(=O)(=O)N2CCN(CC)CC2)cc1-c1nc2c(CC)n(Cc3ccccn3)nc2c(=O)[nH]1
Potency [5]: inconclusive: 6.11 µM [inhibitor, full curve]
Potency [2]: inconclusive: 68.6 µM [rising, partial curve, poor fit]
activity, negative = inhibition [6]: inconclusive: -33.3%
Potency [11]: inactive
Potency [16]: inconclusive: 68.6 µM [falling, partial curve, poor fit]
activity change, negative = inhibition [9]: inconclusive: 10.1%
Potency [13]: inconclusive: 68.6 µM [rising, single point]
Potency [18]: inactive

Cc1c(-c2ccccc2)oc2c(C(=O)OCCN3CCCCC3)cccc2c1=O
Potency [5]: inconclusive: 18.8 µM [inhibitor, single point]
Potency [2]: inactive
activity, negative = inhibition [6]: inconclusive: 6.37% [at 42.5 µM]
Potency [11]: inactive
Potency [16]: active: 23.7 µM
Potency [4]: inactive
activity change, negative = inhibition [9]: inconclusive: 14.7% [at 42.5 µM]
Potency [18]: inconclusive: 13.4 µM [rising, single point]
Potency [19]: inconclusive: 23.9 µM [rising, partial curve, poor fit]

Nc1ccc(C(=O)OCCCOC(=O)c2ccc(N)cc2)cc1
Potency [5]: inconclusive: 30.6 µM [inhibitor]
Potency [2]: inconclusive: 24.3 µM [rising, full curve]
Potency [6]: inconclusive: 21.7 µM [rising, full curve]
Potency [11]: inconclusive: 17.2 µM [cytotoxic, partial curve, poor fit]
Potency [9]: inconclusive: 15.4 µM [rising, full curve]
Potency [13]: inconclusive: 15.4 µM [cytotoxic, single point]
Potency [10]: inconclusive: 68.6 µM [rising, single point]
